# Measured values from PubChem BioAssay AID1634 (National Center for Advancing Translational Sciences (NCATS), 2009).
# Screen size: about 260,000 compounds; about 150 (0.058%) were called active. Inconclusive means that the source gave no clear call. Such entries were picked first, then a sample of the others. Calls come from the whole dose curve; as a rule, active = well fitted inhibition curve with a large enough effect; inconclusive = small, poorly fitted or top-dose-only effect; inactive = no such curve, though single readings can be large or run the other way. No potency is given beside an inconclusive call; the fits are too rough.
# Biological target: Pyruvate kinase PKM (Homo sapiens) (UniProt P14618)
# Experiment: qHTS Assay for Inhibitors of Human Muscle isoform 2 Pyruvate Kinase; note: nearly all actives have a fitted effect of over 60% in size
# Details: purified PKM2, ATP generation, Kinase-Glo luminescence; series mostly up to 57.5 µM
# Description: NIH Chemical Genomics Center [NCGC] Matthew G. Vander Heiden, M.D., Ph.D. [Harvard Medical School, 77 Avenue Louis Pasteur, Boston, MA 02115] […] ATP generation was detected in a coupled reaction by luciferase-mediated luminescence, an ATP-dependent process. […] The enzyme was assayed at an intermediate level of activity to screen for both inhibitors and activators.
# NCGC Assay Protocol Summary: Three uL of substrate mix (at r.t.) in assay buffer (50 mM Imidazole pH7.2, 50 mM KCl, 7 mM MgCl2, 0.01% Tween 20, 0.05% BSA) was dispensed into white solid bottom 1,536 well microtiter plates so that the final concentrations of substrates in the assay were 0.1 mM ADP and 0.5 mM PEP. 23 nL of compound were delivered by a pin tool and 1 uL of enzyme mix in assay buffer (4 degree Celsius) was added. Plates were incubated at room temperature for 1 hour. Two uL of detection mix (Kinase-Glo, Promega; at 4 degree Celsius protected from light) was added and luminescence read by a ViewLux (Perkin Elmer) at 5 second exposure/plate. Data were normalized to the uninhibited and AC100 inhibition (no enzyme). To monitor activation, the first column contained a titration of the activator, NCGC00031955-01 (16-point 1:2 dilutions in duplicate starting at 57 uM) and the first 16 rows of column 4 contained 57 uM of NCGC00031955-01.
# Potency is the fitted concentration of half-maximal effect; tags give direction and shape of the fitted curve.
# Chain of UniProt P14618 (P14618 whole entry, looked up, canonical isoform): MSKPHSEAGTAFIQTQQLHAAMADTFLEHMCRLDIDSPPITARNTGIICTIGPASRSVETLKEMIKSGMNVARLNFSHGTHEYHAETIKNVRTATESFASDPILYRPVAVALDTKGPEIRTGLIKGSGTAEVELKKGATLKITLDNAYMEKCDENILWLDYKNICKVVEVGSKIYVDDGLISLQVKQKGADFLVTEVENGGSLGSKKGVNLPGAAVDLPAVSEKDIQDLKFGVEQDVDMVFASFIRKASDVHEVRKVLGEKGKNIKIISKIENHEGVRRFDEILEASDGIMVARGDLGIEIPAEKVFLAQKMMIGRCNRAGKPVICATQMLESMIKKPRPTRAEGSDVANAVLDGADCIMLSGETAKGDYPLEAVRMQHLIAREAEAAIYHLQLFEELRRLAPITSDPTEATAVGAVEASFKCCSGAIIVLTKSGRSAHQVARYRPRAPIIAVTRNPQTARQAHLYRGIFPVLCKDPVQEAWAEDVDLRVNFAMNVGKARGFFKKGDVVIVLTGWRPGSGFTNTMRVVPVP
row,Compound,Potency
1,Cc1ccc(C(=O)Nc2nc3ccccc3[nH]2)cc1,"inconclusive [falling, partial curve]"
2,O=C(Cc1ccccc1[N+](=O)[O-])N1CCN(Cc2ccc3c(c2)OCO3)CC1,"inconclusive [falling, single point]"
3,c1cncc(CNC2CCCC2)c1,inactive
4,CN(C)c1ccc(/C=C/c2cc[n+](C)c3ccccc23)cc1,"inconclusive [falling, single point]"
5,Cc1ccccc1-n1c(-c2ccoc2)nc2ccccc2c1=O,"inconclusive [falling, single point]"
6,COc1ccc(C/C(=N\OC(C)=O)c2ccc(OC)cc2)cc1,"inconclusive [falling, partial curve]"
7,Nc1ccc(N=Nc2ccccc2)cc1,"inconclusive [falling, single point]"
8,N#CC(C#N)=NNc1ccc(S(=O)(=O)N2CCCC2)cc1,inactive
9,CCOC(=O)c1cc(CC)sc1/N=C/c1c(O)[nH]c(=S)[nH]c1=O,"inconclusive [falling, single point]"
10,O=C(Nc1cccnc1)C1CCN(S(=O)(=O)c2cccs2)CC1,inactive
11,O=C(O)CCCCC1SCC2NC(=O)NC21 (configuration not stated),"inconclusive [falling, single point]"
12,CN1/C(=C\C=C\C2=[N+](C)c3ccc4ccccc4c3C2(C)C)C(C)(C)c2ccccc21,"inconclusive [falling, partial curve]"
13,CN(C)C(=O)Oc1ccc(OCc2nc3ccccc3[nH]2)cc1,active: 11.2 µM
14,Nn1c(COc2ccc(Cl)cc2)n[nH]c1=S,inactive
15,CCN(CC)C(=O)c1ccc(NC(=O)Nc2ccccc2F)cc1,"inconclusive [falling, partial curve]"
16,O=[N+]([O-])c1cc(F)c(N2CCCC2)cc1Br,inactive
17,Cc1[nH]c2ccccc2c1C(=O)C(=O)N1CC2CC(C1)c1cccc(=O)n1C2 (configuration not stated),"inconclusive [falling, single point]"
18,COCCn1cc(C(=O)N2CCC3(CC2)OCCO3)c2c3ccccc3n(C)c2c1=O,"inconclusive [falling, single point]"
19,CN(C)c1ccc(/C=C/C=C2/C(=O)NC(=O)N(c3ccccc3)C2=O)cc1,"inconclusive [falling, partial curve]"

row,Compound,Potency
1,CC(=O)Nc1ccc(N(C(=O)Cn2nnc3ccccc32)C(C(=O)NC2CCCC2)c2ccc(O)c(O)c2)cc1 (configuration not stated),inactive
2,CC(C)N1CCN(c2ccc(O)cc2)CC1,"inconclusive [falling, partial curve]"
3,CCN(CC)C(=O)c1ccc(NC(=O)c2cccc(F)c2)cc1,"inconclusive [falling, partial curve]"
4,CN1CCN(c2ncnc3c2cnn3C)CC1,"inconclusive [falling, single point]"
5,Cc1ccc(-n2sc3ccccc3c2=O)cc1,"inconclusive [falling, single point]"
6,O=c1[nH]c(=S)[nH]c(O)c1N=Nc1ccc(-c2ccccc2)cc1[N+](=O)[O-],"inconclusive [falling, partial curve]"
7,O[C@H]1C2CCC1C(N1CCCCC1)CC2 (some centres not stated),"inconclusive [falling, single point]"
8,O=C1NC(=O)C(=Cc2coc3ccc(O)cc3c2=O)C(=O)N1,inactive
9,CN1C(=O)C(=Cc2ccc(OCCN(C)c3ccccn3)cc2)C(=O)N(C)C1=O,inactive
10,CCN(CC)C(=O)c1c(C)[nH]c(=S)c(C#N)c1-c1ccco1,"inconclusive [falling, single point]"
11,O=C(COc1ccccc1)N1CCN(C2CC3CCC2C3)CC1 (configuration not stated),inactive
12,CC(=O)Nc1ccc(Cc2nc3ccccc3[nH]2)cc1,"inconclusive [falling, single point]"
13,COc1ccc(Br)cc1CNCCc1cccc(Cl)c1,"inconclusive [falling, single point]"
14,CCn1c(N)c(C(=O)NC)sc1=S,"inconclusive [falling, partial curve]"
15,CN(C)C(=O)Oc1ccc(OC(=O)c2ccccc2)cc1,"inconclusive [falling, single point]"
16,Nc1ccnn1C1CCNCC1,"inconclusive [falling, single point]"
17,Cn1cccc1/C=C1/C(=O)NC(=S)N(Cc2ccc(F)cc2)C1=O,"inconclusive [falling, single point]"
18,O=C(O)CSC(=S)N1CC2CC(C1)c1cccc(=O)n1C2 (configuration not stated),"inconclusive [falling, single point]"
